Assay results taken from PubChem BioAssay AID588855 (National Center for Advancing Translational Sciences (NCATS), 2011).
Hit rate of the full screen: of about 410,000 compounds, about 5,000 (1.2%) were called active. Inconclusive means that the source gave no clear call. Such entries were picked first, then a sample of the others. Calls follow the shape of the dose curve; as a rule, active = well fitted inhibition curve with a large enough effect; inconclusive = small, poorly fitted or top-dose-only effect; inactive = no such curve, though single readings can be large or run the other way. Where the call is inconclusive, the potency comes from a doubtful curve fit.

Assay: qHTS for Inhibitors of TGF-b; also: nearly all actives have a fitted effect of over 65% in size
Conditions: HepG2 CAGA-GFP TGF-b/SMAD3 reporter, GFP fluorescence, 18 h, TGF-beta stimulated, 500 pg/mL final; series mostly up to 46.1 µM; activity, negative = inhibition: at the top concentration
How it was run: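 Inhibition was scored as loss of TGF-beta-induced (500 pg/mL final, 18 hours, 37 degrees C) GFP in HEPG2 cells carrying a CAGA-GFP reporter, in DMEM with 1% FBS. Well GFP was summed per cell; Activity was normalised to unstimulated and stimulated DMSO wells, then concentration-response fitting.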
% is scaled to controls: 0 for no effect and ±100 for the full control effect; potency is read from the fitted curve at half-maximal effect; tags tell the direction and shape of the fitted curve.

Structure (SMILES)	Potency	activity, negative = inhibition
COc1ccc(S(=O)(=O)N(CC(=O)NCc2ccccc2)c2ccc(C)cc2)cc1OC	inconclusive: 35.5 µM [inhibitor, single point]	
O=c1[nH]c2ccc(Br)cc2c(-c2ccccc2)c1CN1CCOCC1	inconclusive: 35.5 µM [inhibitor, single point]	
C[C@H](CCC(=O)NCC(=O)O)[C@H]1CC[C@H]2[C@@H]3[C@H](O)C[C@@H]4C[C@H](O)CC[C@]4(C)[C@H]3C[C@H](O)[C@]12C	inactive	
COc1ccc(OCc2cc(C(=O)NCCCc3ccccc3)no2)c(Cl)c1	inconclusive: 22.4 µM [inhibitor, single point]	
CO/N=C/c1ccc(N2CCN(C(=O)c3ccc(Cl)cc3Cl)CC2)c([N+](=O)[O-])c1		inactive: -22.7%
Nc1c(C(=O)Nc2ccccc2)c2nc3ccccc3nc2n1CCCN1CCOCC1	inconclusive: 15.8 µM [inhibitor, single point]	
CCCn1c(N)c(C(=O)CN(C)CC(=O)Nc2ccccc2CC)c(=O)[nH]c1=O	inconclusive: 12.6 µM [inhibitor, single point]	
C[C@H](CO)N1C[C@H](C)[C@@H](CN(C)C)Oc2c(NC(=O)CCC(F)(F)F)cccc2C1=O	inconclusive: 35.5 µM [inhibitor, single point]	
Cc1cnc(NC(=O)c2cccc(S(=O)(=O)N3CC(C)OC(C)C3)c2)s1 (stereo not drawn)	inconclusive: 15.8 µM [inhibitor, single point]	
O=[N+]([O-])c1ccc(N2CCCC2)cc1NC(c1ccccc1)c1ccccc1	inconclusive: 2.51 µM [inhibitor, partial curve]	
Cc1ccc(NC(=O)C2CCCN2S(=O)(=O)c2cccc3nsnc23)cc1Cl (stereo not drawn)	inconclusive: 3.16 µM [inhibitor, partial curve, poor fit]	
Cc1ccc(NC(=O)/C(=C/c2cccc([N+](=O)[O-])c2)NC(=O)C2CCCCC2)c(C)c1	inconclusive: 0.0891 µM [inhibitor, full curve, poor fit]	
COc1ccc(CNC(=O)CSc2ncc(S(=O)(=O)c3ccc(C)c(Cl)c3)c(=O)[nH]2)cc1		inactive: -4.76%
CC(=O)c1sc(=S)n(-c2ccc(Cl)cc2)c1C		inactive: -12%
Cc1cc(C)n(-c2nc3ccccc3c(=O)n2OCC#N)n1	inconclusive: 8.91 µM [inhibitor, partial curve, poor fit]	
COC(=O)CCC(=O)OC1(C)C(=O)C2=CN(CCCOC(C)C)C(c3ccc(OC)cc3)=CC2=C(Br)C1=O (stereo not drawn)		inactive: -9.01%
Cc1c(O)c(CN2CCCC2)cc2c3c(c(=O)oc12)CCC3		inactive: -9.88%
Cc1ccccc1C(=O)N1CCN(CCc2ccccn2)CC1		inactive: 3.59%
COc1ccc(/C=C/C(=O)NC2CCCCCCC2)cc1S(=O)(=O)N1CCOCC1	inconclusive: 10 µM [inhibitor, partial curve, poor fit]	
CCCCN(c1nc2ccccc2nc1Cl)S(=O)(=O)c1ccc(C)cc1	inconclusive: 15.8 µM [inhibitor, single point]	
COc1cccc(CNC(=O)CSc2ncc(S(=O)(=O)c3ccc(Br)cc3)c(=O)[nH]2)c1		inactive: -3.57%
Cc1cccc(NC(=O)CCn2c(=O)oc3ccccc32)c1		inactive: 3.62%
CC(C)C(N)c1csc(NC(=O)Nc2ccc(OC(F)(F)F)cc2)n1 (stereo not drawn)	active: 20 µM	

Structure (SMILES)	Potency	activity, negative = inhibition
CCSc1nsc(NC(=O)Nc2ccccc2F)n1	inconclusive: 25.1 µM [inhibitor, single point]	
O=C(C1CC1)N1CCN(c2nc3c(Cl)cccc3s2)CC1		inactive: -0.924%
COc1cc(CC(=O)Nc2cccc(S(=O)(=O)N(C)c3ccccc3)c2)cc(OC)c1OC	inconclusive: 22.4 µM [inhibitor, single point]	
CCOC(=O)c1cccc(NC(=O)CCC(=O)N2CC(C)Oc3ccc(C)cc32)c1 (stereo not drawn)		inactive: -25.7%
O=C(NC(=S)Nc1cccc2c(O)cccc12)c1cccc(Br)c1	inconclusive: 22.4 µM [inhibitor, single point]	
COc1ccc(NCC(=O)Nc2cccc(S(=O)(=O)N3CCCC3)c2)cc1Cl	inconclusive: 14.1 µM [inhibitor, single point]	
O=C(CSc1nnnn1-c1cccc2ccccc12)NC(C(=O)O)(c1ccccc1)c1ccccc1		inactive: -2.6%
Clc1ccccc1C(c1ccccc1)(c1ccccc1)n1ccnc1	inconclusive: 35.5 µM [inhibitor, single point]	
COc1ccc(OC)c(/C=C/c2nc3ccccc3[nH]c2=O)c1		inactive: 113%
CCC(C)NC(=O)CC(c1ccc(OC)cc1)n1cccc1 (stereo not drawn)	inconclusive: 3.16 µM [inhibitor, single point]	
C/C(=N/OC(=O)C1CC1c1ccccc1)c1ccccc1 (stereo not drawn)		inactive: 9.63%
COc1ccc(Nc2nnc(SCC(=O)c3cc(C)n(CC4CCCO4)c3C)s2)cc1 (stereo not drawn)		inactive: -3.71%
COC(=O)NC(NC(=S)Nc1cccc(C)c1)C(Cl)(Cl)Cl (stereo not drawn)	inconclusive: 10 µM [inhibitor, partial curve, poor fit]	
CN(C)c1ccc(CNS(=O)(=O)c2ccc3[nH]c4c(c3c2)CCCCC4)cc1	inconclusive: 35.5 µM [inhibitor, single point]	
Cc1cccc(C)c1Nc1nnc(SCc2cc([N+](=O)[O-])cc3c2OCOC3)s1	inconclusive: 22.4 µM [inhibitor, single point]	
COC(=O)c1c(C)n(-c2ccc(C)cc2)c2ccc(O)cc12	inconclusive: 35.5 µM [inhibitor, single point]	
COc1ccc(C2=CC(c3ccc(OC)c(OC)c3)NC(=S)N2)cc1 (stereo not drawn)		inactive: -4.77%
CC1CCN(C(=O)CSc2nnc(N)s2)CC1	inconclusive: 5.62 µM [inhibitor, partial curve, poor fit]	
Cc1nc2ccc(S(=O)(=O)NC(CC(C)C)C(=O)N3CCN(c4ccc(F)cc4)CC3)cc2s1 (stereo not drawn)		inactive: -6.45%
O=C1CCC(=O)N1CC(=O)N1CCCc2ccccc21	inconclusive: 1.26 µM [inhibitor, full curve, poor fit]	
CCOc1ccc(NC(=O)CSc2cn(CC(=O)N3CCCCCC3)c3ccccc23)cc1	inconclusive: 6.31 µM [inhibitor, partial curve]	
Cc1cc(C(=O)N2CCC(C)(C(=O)NS(=O)(=O)C3CC3)C2)n(C(C)(C)C)n1 (stereo not drawn)	inconclusive: 20 µM [inhibitor, single point]	
CCN(C(=O)CCN1C(=O)/C(=C/c2ccccc2)SC1=S)C1CCS(=O)(=O)C1 (stereo not drawn)	inconclusive: 35.5 µM [inhibitor, single point]	

Structure (SMILES)	Potency	activity, negative = inhibition
COc1ccc(OCC(=O)Nc2ccccc2N2CCN(C)CC2)cc1		inactive: 12%
COc1ccc(NC(=O)C2(C)Cc3c(-c4ccc5c(c4)OCO5)ccnc3O2)cc1 (stereo not drawn)	inconclusive: 35.5 µM [inhibitor, partial curve, poor fit]	
Cc1cccc(C(=O)N2CCN(S(=O)(=O)N3CCCCCC3)CC2)c1		inactive: 1.55%
COC(=O)C1=C(C)N(Cc2ccco2)C(=O)/C1=C\c1ccc([N+](=O)[O-])cc1	inconclusive: 35.5 µM [inhibitor, single point]	
CCOC(=O)c1c(C)[nH]c(C)c1S(=O)(=O)N1CCCC(C(=O)Nc2ccc(F)cc2F)C1 (stereo not drawn)	inconclusive: 3.55 µM [inhibitor, partial curve, poor fit]	
Cc1ccc(S(=O)(=O)NN2C(=O)c3ccccc3NC2c2ccccn2)cc1 (stereo not drawn)		inactive: -1.3%
CCC(C)Nc1nc(-c2ccccn2)nc2ccccc12 (stereo not drawn)	inconclusive: 7.08 µM [inhibitor, full curve]	
O=C(Cn1ncc(N2CCCC2)c(Cl)c1=O)c1ccc(Cl)cc1		inactive: -7.54%
CC1COC(C)(CC(=O)NN2C(=O)c3ccccc3C2=O)O1 (stereo not drawn)		inactive: 4.79%
COc1ccc(N2CCC(CNC(=S)Nc3cc(C)cc(C)c3)C2)cc1 (stereo not drawn)	inconclusive: 17.8 µM [inhibitor, partial curve, poor fit]	
Cc1cccc(-n2c(C)nc3sccc3c2=O)c1	inconclusive: 3.98 µM [inhibitor, full curve, poor fit]	
NC(=O)c1ccc(NS(=O)(=O)c2ccccc2F)cc1	inconclusive: 35.5 µM [inhibitor, single point]	
COc1ccccc1C(=O)N1CCNC(=O)C1CC(=O)Nc1cccc(C)c1 (stereo not drawn)	inconclusive: 0.708 µM [inhibitor, partial curve, poor fit]	
C=C(C)CSc1nc2sc3c(c2c(=O)n1-c1ccccc1)CCC(C)C3 (stereo not drawn)		inactive: -6.76%
CCOC(=O)c1ccc(NC(=O)Nc2nncs2)cc1	inconclusive: 11.2 µM [inhibitor, partial curve, poor fit]	
O=[N+]([O-])c1cc(C(F)(F)F)ccc1NCCNC(=S)Nc1ccc(Cl)cc1	active: 5.01 µM	
COc1ccc(-c2n[nH]c3c2C(c2ccc(O)cc2)N(c2ccc(Br)cc2)C3=O)cc1 (stereo not drawn)	inconclusive: 8.91 µM [inhibitor, partial curve, poor fit]	
COc1ccc(C2=NN(C(=O)c3cccs3)C(c3ccc(OC)cc3)C2)cc1 (stereo not drawn)	inconclusive: 35.5 µM [inhibitor, single point]	
COc1ccc(C(C)=O)cc1OCc1ccccc1		inactive: 3.2%
O=S(=O)(c1cc(F)ccc1F)N1CCN(c2ncnc3ccccc23)CC1	active: 12.6 µM	
Cc1cc(C)n2nc(C(=O)OCC(=O)N(CCC#N)c3ccc(F)cc3)nc2n1	inconclusive: 3.16 µM [inhibitor, single point]	
C=CCOC(=O)C1=C(C)NC(SCC(N)=O)=C(C#N)C1c1cccs1 (stereo not drawn)	inconclusive: 6.31 µM [inhibitor, single point]	
